Results: patent US11685745B2, “Substituted benzoxazole and benzofuran compounds as PDE7 inhibitors” (Dart NeuroScience, LLC, priority 2017, dated 2023)

target: N-terminal truncated recombinant human PDE7B enzyme (Homo sapiens (Human), UniProt Q9NP56); assay: biochemical

Row | Compound | IC50 [nM]
1 | O=C1Nc2c(Cl)cc3cc(C(=O)NCC(=O)N4CCCCC4)oc3c2C2(CCCCC2)N1 [Example 365, 5′-Chloro-7′-oxo-N-[2-oxo-2-(piperidin-1-yl)ethyl]-7′,8′-dihydro-6′H-spiro[cyclohexane-1,9′-furo[2,3-f]quinazoline]-2′-carboxamide] | 100 to 1000
2 | O=C1Nc2c(Cl)cc3cc(C(=O)N4CC(O)C4)oc3c2C2(CCCCC2)N1 [Example 366, 5′-Chloro-2′-(3-hydroxyazetidine-1-carbonyl)-7′,8′-dihydro-6′H-spiro[cyclohexane-1,9′-furo[2,3-f]quinazoline]-7′-one] | 100 to 1000
3 | O=C1Nc2c(Cl)cc3cc(C(=O)N4CCN(C5CC6CCC5C6)CC4)oc3c2C2(CCCCC2)N1 (stereo not drawn) [Example 363, 2′-(4-{Bicyclo[2.2.1]heptan-2-yl}piperazine-1-carbonyl)-5′-chloro-7′,8′-dihydro-6′H-spiro[cyclohexane-1,9′-furo[2,3-f]quinazoline]-7′-one] | 10 to 100
4 | COCC1(NCc2nc3cc(Cl)c4c(c3o2)C2(CCCCC2)NC(=O)N4)CCOCC1 [Example 166, 5-Chloro-2-({[4-(methoxymethyl)oxan-4-yl]amino}methyl)-7,8-dihydro-6H-spiro[[1,3]oxazolo[5,4-f]quinazoline-9,1′-cyclohexane]-7-one] | 10 to 100
5 | O=C1Nc2c(Cl)cc3nc(CN4CCN5CCC[C@H]5C4)oc3c2C2(CCCCC2)N1 [Example 157, 2-[(8aS)-Octahydropyrrolo[1,2-a]piperazin-2-ylmethyl]-5-chloro-7,8-dihydro-6H-spiro[[1,3]oxazolo[5,4-f]quinazoline-9,1′-cyclohexane]-7-one] | 100 to 1000
6 | O=C1Nc2c(Cl)cc3cc(CN4CCCC4)oc3c2C2(CCCCC2)N1 [Example 243, 5′-Chloro-2′-(pyrrolidin-1-ylmethyl)-7′,8′-dihydro-6′H-spiro[cyclohexane-1,9′-furo[2,3-f]quinazoline]-7′-one] | 100 to 1000
7 | O=C1Nc2c(Cl)cc3cc(C(=O)NCc4ccc5c(c4)COC5)oc3c2C2(CCCCC2)N1 [Example 387, 5′-Chloro-N-(1,3-dihydro-2-benzofuran-5-ylmethyl)-7′-oxo-7′,8′-dihydro-6′H-spiro[cyclohexane-1,9′-furo[2,3-f]quinazoline]-2′-carboxamide] | 10 to 100
8 | COCCN(Cc1cccs1)C(=O)c1cc2cc(Cl)c3c(c2o1)C1(CCCCC1)NC(=O)N3 [Example 462, 5′-Chloro-N-(2-methoxyethyl)-7′-oxo-N-(thiophen-2-ylmethyl)-7′,8′-dihydro-6′H-spiro[cyclohexane-1,9′-furo[2,3-f]quinazoline]-2′-carboxamide] | 10 to 100
9 | CN(Cc1nc2cc(Cl)c3c(c2o1)C1(CCCCC1)NC(=O)N3)C1CCOCC1 [Example 129, 5-Chloro-2-{[methyl(oxan-4-yl)amino]methyl}-7,8-dihydro-6H-spiro[[1,3]oxazolo[5,4-f]quinazoline-9,1′-cyclohexane]-7-one] | 10 to 100
10 | CCN1CCN(Cc2cc3cc(Cl)c4c(c3o2)C2(CCCCC2)NC(=O)N4)CC1 [Example 553, 5′-Chloro-2′-[(4-ethylpiperazin-1-yl)methyl]-7′,8′-dihydro-6′H-spiro[cyclohexane-1,9′-furo[2,3-f]quinazoline]-7′-one] | 100 to 1000
11 | CC1(C)CC(NC(=O)c2cc3cc(Cl)c4c(c3o2)C2(CCCCC2)NC(=O)N4)CC(C)(C)O1 [Example 321, 5′-Chloro-7′-oxo-N-(2,2,6,6-tetramethyloxan-4-yl)-7′,8′-dihydro-6′H-spiro[cyclohexane-1,9′-furo[2,3-f]quinazoline]-2′-carboxamide] | 10 to 100
12 | NC(=O)C1CCN(Cc2cc3cc(Cl)c4c(c3o2)C2(CCCCC2)NC(=O)N4)CC1 [Example 556, 1-{5′-Chloro-7′-oxo-7′,8′-dihydro-6′H-spiro[cyclohexane-1,9′-furo[2,3-f]quinazoline]-2′-ylmethyl}piperidine-4-carboxamide] | 100 to 1000
